Values come from read counts of a selection and are noisy.
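Further: shRNA barcodes quantified by deep sequencing of PCR amplicons from cellular DNA, counts expressed as percent of each subpool, ratio averaged over two biological duplicates.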

In one data set the test system is NB7. The data set can be described thus: fold depletion of shRNA, plasmid library share / infected cells without Dox share (9 days) (ratio); higher = more depleted after infection (more toxic, leaky expression from a Tet-inducible vector; NB7 is a neuroblastoma line without caspase-8). As to conditions: shRNA pool: CD95L ORF + CD95L 3'UTR + Venus libraries.
In the case of ATGATGTTTTCCTATAATATA, the “fold depletion of shRNA” value is 0.647.
GTGATGTTTTTCATGGTTCTG: the “fold depletion of shRNA” value is 0.895.
The same measure, in the same setting: then TATGTCAACGTATCTGAGCTC, with 4.67; and ATTGTAGGGGTGTGTGTGTGT, with 0.916; and AGTTCGAGGGCGACACCCTGG, with 1.13.
With GCCCTGGCCCACCCTCGTGAC, the “fold depletion of shRNA” value came out at 0.635.
Same read-out and setting: the figure for TGAAGGGCATCGACTTCAAGG is 0.487; for CACCTAATGTTTATGAGCCAG it is 1.77.
On the same count and under the same terms, then GGCCACCCCAGTCCACCCCCT, with 0.275; and GTTCAGCGTGTCCGGCGAGGG, with 0.516; and TTCTAAATGCATATCCTGAGC, with 2.08.
Take GCTACCAGTCCGCCCTGAGCA: the “fold depletion of shRNA” value stood at 2.09.
On the same count and under the same terms, then GGCGAGGAGCTGTTCACCGGG, with 0.447; and AGCATCTTCACTTCTAAATGC, with 1.92; and GCCGAGGTGAAGTTCGAGGGC, with 0.711.
The same measure, in the same setting: then AGTGAGGGTCTTCTTACATGC, with 4.28; and ACGGCGACGTAAACGGCCACA, with 0.831.
On the same count and under the same terms, the figure for TGTGTATGACTAAAGAGAGAA is 0.914; for GAATATGACGGAAGAACATAG it is 1.67.
For AAAAGGAGCTGAGGAAAGTGG, the “fold depletion of shRNA” value was found to be 0.336.
Same read-out and setting: the figure for CCCGTGCCCTGGCCCACCCTC is 1.32; for GGTGATGATGGAGGGGAAGAT it is 1.37.
In the case of ACCTAATGTTTATGAGCCAGA, the “fold depletion of shRNA” value came out at 1.78.
For AAGCTGATCTGCACCACCGGC, the “fold depletion of shRNA” value was determined as 1.36.
The same measure, in the same setting: the figure for GGCGACGTAAACGGCCACAAG is 3.39; for ACTGCCTCCACTACCGCTGCC it is 0.43; for GTCCAGGAGCGCACCATCTTC it is 0.898.
Take TGTATGACTAAAGAGAGAATG: the “fold depletion of shRNA” value was found to be 0.989.
As for CCGAGAGTCTACCAGCCAGAT, the “fold depletion of shRNA” value was determined as 2.59.
On to AGTCTACCAGCCAGATGCACA, for which the “fold depletion of shRNA” value turned out to be 0.322.
Consider GCAGCCCTTCAATTACCCATA, for which the “fold depletion of shRNA” value turned out to be 1.44.
On to GCAGCAGCTACCTGGGGGCAG, for which the “fold depletion of shRNA” value was 2.72.
TCTCTGGTCAATTTTGAGGAA: the “fold depletion of shRNA” value came out at 0.992.
Still for that read-out and setting: the figure for GCATCGAGCTGAAGGGCATCG is 1.91; for ACTACAAGACCCGCGCCGAGG it is 1.4.
For TCTGGAGTGAAGTATAAGAAG, the “fold depletion of shRNA” value was determined as 0.587.
The same measure, in the same setting: then GAGGTCAAGTAAGAAGACATG, with 0.786.
Same read-out and setting: then AAGTACATATTAGGAAAATAT, with 0.777; and TCCAGGAGCGCACCATCTTCT, with 6.58.
As to ACGTCTATATCACCGCCGACA, the “fold depletion of shRNA” value was 2.91.
For AATGATGTTTTCCTATAATAT, the “fold depletion of shRNA” value came out at 0.701.
The same measure, in the same setting: the figure for GGGGGACTGTCTTTCAGATAC is 2.28.
On the same count and under the same terms, the figure for TCTTTCAGATACATGGTTGTG is 1.52.
Same read-out and setting: then CGGCCCCGTGCTGCTGCCCGA, with 0.893.
For the sequence TGATTGTCAGCTACTAATGAT, the “fold depletion of shRNA” value turned out to be 3.14.
The same measure, in the same setting: the figure for GAACTCTGGGCTGCCATGTGA is 1.04.
Turning to AAGGCCAACTTCAAGATCCGC, the “fold depletion of shRNA” value came to 1.19.
GGGTGGACAGCAGTGCCAGCT: the “fold depletion of shRNA” value stood at 10.2.
Same read-out and setting: the figure for CACAACATCGAGGACGGCGGC is 1.62; for GCCTTGGTAGGATTGGGCCTG it is 0.728.
As for TCAGACGTTTTTCGGCTTATA, the “fold depletion of shRNA” value was 2.98.

The data set is the same for the next values; noted with them: shRNA pool: CD95 ORF + CD95 3'UTR + Venus libraries.
As for GCACCAAATGTGAACATGGAA, the “fold depletion of shRNA” value came out at 3.03.
Turning to TGTTGACTTGAGTAAATATAT, the “fold depletion of shRNA” value came out at 0.687.
For the sequence ATCATCATCTGGATTTAGGAA, the “fold depletion of shRNA” value came out at 1.23.
The same measure, in the same setting: then TGTAAACCAAACTTTTTTTGT, with 0.914; and ACCAAAAGGCAAGACTGCCCT, with 0.898; and TTGAAAAGATTCTTAATAGCT, with 0.7.
Same read-out and setting: then CACCAAGTGCAAAGAGGAAGG, with 0.735; and GTGAACACTGTGACCCTTGCA, with 0.36.
Same read-out and setting: the figure for TTAGTGTTTGAAAAGATTCTT is 1.02; for AGTTCGAGGGCGACACCCTGG it is 0.988.
As for GCCCTGGCCCACCCTCGTGAC, the “fold depletion of shRNA” value stood at 0.835.
In the case of TTGAGTGCAGAATTTAAATAA, the “fold depletion of shRNA” value turned out to be 1.26.
Same read-out and setting: the figure for GGAATCATCAAGGAATGCACA is 0.887; for TGAAGGGCATCGACTTCAAGG it is 0.761.
With TTTGACTATTATATATGTGTA, the “fold depletion of shRNA” value worked out at 0.728.
Still for that read-out and setting: then GACTGCGTGCCCTGCCAAGAA, with 1.25; and GCAGAGAAAATTCAGACTATC, with 1.44.
The same measure, in the same setting: the figure for AAGGCAAGACTGCCCTTAGAA is 3.38; for GTTCAGCGTGTCCGGCGAGGG it is 0.773; for ATTTATGTAAAGTATATGTAT it is 0.579.
Same read-out and setting: the figure for CCAAGAAGGGAAGGAGTACAC is 1.65.
ATCAATAGAAGAAGCTATGAC: the “fold depletion of shRNA” value came out at 1.18.
Same read-out and setting: then AGATTCTTAATAGCTGGCTGT, with 1.24; and ATGTGAATTTTAAGAAATAAT, with 0.931.
The same measure, in the same setting: the figure for CCAAGACACAGCAGAACAGAA is 1.97; for GCTACCAGTCCGCCCTGAGCA it is 1.05; for GAAGATGTAGATTGTGTGATG it is 5.73.
Still for that read-out and setting: the figure for GGCGAGGAGCTGTTCACCGGG is 0.344; for GTGCCCATCCTGGTCGAGCTG it is 2.11; for CTCAGAAAATTCAAACTTCAG it is 1.04.
Turning to GCCGAGGTGAAGTTCGAGGGC, the “fold depletion of shRNA” value worked out at 1.74.
The same measure, in the same setting: then TGTGTGATGAAGGACATGGCT, with 1.66; and TTGCAGAGAAAATTCAGACTA, with 1.51.
On the same count and under the same terms, then ACGGCGACGTAAACGGCCACA, with 1.08; and GAAGCTATGACCTTTTGCTGA, with 1.82.
Regarding TAAAATAGATTCTTATTTTTC, the “fold depletion of shRNA” value worked out at 0.845.
Still for that read-out and setting: then GGAAAGAAAGAAGCGTATGAC, with 0.658.
Still for that read-out and setting: the figure for ATTGCTGGAGTCATGACACTA is 1.64; for CCCGTGCCCTGGCCCACCCTC it is 1.06.
Take AAAGAATGGTGTCAATGAAGC: the “fold depletion of shRNA” value turned out to be 0.666.
Still for that read-out and setting: the figure for AAGCTGATCTGCACCACCGGC is 1.08.
Regarding GAGGACGGCGGCGTGCAGCTC, the “fold depletion of shRNA” value turned out to be 0.469.
As for AGAGGATGAAAGATTAAGATT, the “fold depletion of shRNA” value turned out to be 0.782.
Consider GGCGACGTAAACGGCCACAAG, for which the “fold depletion of shRNA” value worked out at 2.73.
Still for that read-out and setting: the figure for TTGAGACTCAGAACTTGGAAG is 0.635; for ATATCACCACTATTGCTGGAG it is 7.63; for GTCCAGGAGCGCACCATCTTC it is 0.797.
As for GTTTGTATTAAATGTGAATTT, the “fold depletion of shRNA” value was 0.973.
Take AATTTTAAGAAATAATATTTA: the “fold depletion of shRNA” value was 1.44.
The same measure, in the same setting: then GGTGAAAGGAAAGCTAGGGAC, with 2.03; and CTAACTGCTCTCAGAGAAAGT, with 1.05.
Take GAAGCAGATACCTGGAACCAC: the “fold depletion of shRNA” value was determined as 1.49.
The same measure, in the same setting: then CAGATCTAACTTGGGGTGGCT, with 2.47; and CTTCAAGATCCGCCACAACAT, with 1.45; and AATTATAAAATATAGGTAAAA, with 1.03.
With AAATATCTTTGAAAGTTTGTA, the “fold depletion of shRNA” value was 0.922.
Same read-out and setting: the figure for AGACTATCATCCTCAAGGACA is 2.9; for CATTTTATCATTTATTAGCGC it is 1.18; for TTCTTACGTCTGTTGCTAGAT it is 1.11.
In the case of GCAGATGTAAACCAAACTTTT, the “fold depletion of shRNA” value was 1.76.
As to TGTGAATTCACATAGAAAACA, the “fold depletion of shRNA” value is 1.18.
On to ACCATATTTCTAAACTTTGTT, for which the “fold depletion of shRNA” value turned out to be 0.672.
On the same count and under the same terms, the figure for TTCTTTCTCAGGCATCAAAAG is 1.91; for AAAGTTTGTATTAAATGTGAA it is 0.872; for TATTGCTGGAGTCATGACACT it is 2.09.
On the same count and under the same terms, then ACTAATTGTTTGGGTGAAGAG, with 1.52.
As for AAATGTCTATCCACAGGCTAA, the “fold depletion of shRNA” value was found to be 1.49.
As for CAAGAATGACAATGTCCAAGA, the “fold depletion of shRNA” value was determined as 1.22.
Turning to GCATCGAGCTGAAGGGCATCG, the “fold depletion of shRNA” value was found to be 2.48.
Take ACTACAAGACCCGCGCCGAGG: the “fold depletion of shRNA” value was 1.14.
Still for that read-out and setting: then TTAATAGCTGGCTGTAAATAC, with 1.27; and ACATGGAAATATCACCAAAAA, with 0.647; and TAGATTCTTATTTTTCCCCCA, with 1.32.
Same read-out and setting: the figure for TCCAGGAGCGCACCATCTTCT is 1.1.
The same measure, in the same setting: then ACGTCTATATCACCGCCGACA, with 1.7; and ACCTGCTACAAATGGCAGCTT, with 1.2; and GGGATTGGAATTGAGGAAGAC, with 0.727.
In the case of CGGCCCCGTGCTGCTGCCCGA, the “fold depletion of shRNA” value was 0.847.
On the same count and under the same terms, then CACACTCACCAGCAACACCAA, with 0.677.
GAAAGAAAGAAGCGTATGACA: the “fold depletion of shRNA” value was found to be 1.38.
Still for that read-out and setting: the figure for AAGGCCAACTTCAAGATCCGC is 1.08.
With TTTATGTAAAGTATATGTATT, the “fold depletion of shRNA” value amounted to 1.15.
Same read-out and setting: then CTTGCACCAAATGTGAACATG, with 1.34.
For the sequence CACAACATCGAGGACGGCGGC, the “fold depletion of shRNA” value was found to be 1.29.
For TTACTGGCTCAAAACTACCTA, the “fold depletion of shRNA” value was 1.21.
Still for that read-out and setting: then GAGCCAACATATTTGTAGATT, with 1.21.
Same read-out and setting: the figure for ATGCTCTGGCATCTAACATAT is 1.39; for ATTTAAATAAGGCTCTACCTC it is 3.11.

The values are drawn from the supplement of paper PMC5655136.
